# Test results reported in the supplement of paper PMC8728848.
# The other results are listed elsewhere or left out.
# Tests used:
# Assay in all cases: glycan array binding signal (z-score within array); higher = stronger binding
# Details in all cases: glycan notation: IUPAC condensed, linker removed
# [1] = molecular target: Neu5Ac(a2-3)Gal(b1-3)[Fuc(a1-4)]GlcNAc
# Procedure, shortened: (§1)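 From the Consortium for Functional Glycomics database, 3228 arrays were curated, keeping only those whose protein sequence was available. Binding is given as a within-array Z-score averaged across arrays sharing a protein sequence and across linkers. Negative Z-scores can be read as non-binding.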
# [2] = molecular target: Neu5Ac(a2-3)Gal(b1-3)[Fuc(a1-4)]GlcNAc(b1-3)Gal(b1-3)[Fuc(a1-4)]GlcNAc
# Procedure, shortened: as §1
# [3] = molecular target: Neu5Ac(a2-3)Gal(b1-3)[Fuc(a1-4)]GlcNAc(b1-3)Gal(b1-4)[Fuc(a1-3)]GlcNAc
# Procedure, shortened: as §1
# [4] = molecular target: Neu5Ac(a2-3)Gal(b1-3)[GlcNAc(b1-6)]GalNAc
# Procedure, shortened: as §1
# [5] = molecular target: Neu5Ac(a2-3)Gal(b1-3)[Neu5Ac(a2-6)]GalNAc
# Procedure, shortened: as §1
# [6] = molecular target: Neu5Ac(a2-3)Gal(b1-3)[Neu5Ac(a2-6)]GlcNAc(b1-3)[Fuc(a1-3)[Gal(b1-4)]GlcNAc(b1-6)]Gal(b1-4)Glc
# Procedure, shortened: as §1
# [7] = molecular target: Neu5Ac(a2-3)Gal(b1-3)]Neu5Ac(a2-3)Gal(b1-4)]GlcNAc
# Procedure, shortened: as §1
# [8] = molecular target: Neu5Ac(a2-3)Gal(b1-4)Glc
# Procedure, shortened: as §1
# [9] = molecular target: Neu5Ac(a2-3)Gal(b1-4)GlcNAc
# Procedure, shortened: as §1
# [10] = molecular target: Neu5Ac(a2-3)Gal(b1-4)GlcNAc(b1-2)Man
# Procedure, shortened: as §1
# [11] = molecular target: Neu5Ac(a2-3)Gal(b1-4)GlcNAc(b1-2)Man(a1-3)[GlcNAc(b1-4)][Neu5Ac(a2-3)Gal(b1-4)GlcNAc(b1-2)Man(a1-6)]Man(b1-4)GlcNAc(b1-4)GlcNAc
# Procedure, shortened: as §1
# [12] = molecular target: Neu5Ac(a2-3)Gal(b1-4)GlcNAc(b1-2)Man(a1-3)[Neu5Ac(a2-3)Gal(b1-4)GlcNAc(b1-2)Man(a1-6)]Man(b1-4)GlcNAc(b1-4)GlcNAc
# Procedure, shortened: as §1
# [13] = molecular target: Neu5Ac(a2-3)Gal(b1-4)GlcNAc(b1-2)Man(a1-3)[Neu5Ac(a2-3)Gal(b1-4)GlcNAc(b1-2)Man(a1-6)]Man(b1-4)GlcNAc(b1-4)[Fuc(a1-6)]GlcNAc
# Procedure, shortened: as §1
# [14] = molecular target: Neu5Ac(a2-3)Gal(b1-4)GlcNAc(b1-2)Man(a1-3)[Neu5Ac(a2-6)Gal(b1-4)GlcNAc(b1-2)Man(a1-6)]Man(b1-4)GlcNAc(b1-4)GlcNAc
# Procedure, shortened: as §1
# [15] = molecular target: Neu5Ac(a2-3)Gal(b1-4)GlcNAc(b1-2)[Neu5Ac(a2-3)Gal(b1-4)GlcNAc(b1-4)]Man(a1-3)[GlcNAc(b1-4)][Neu5Ac(a2-3)Gal(b1-4)GlcNAc(b1-2)[Neu5Ac(a2-3)Gal(b1-4)GlcNAc(b1-6)]Man(a1-6)]Man(b1-4)GlcNAc(b1-4)GlcNAc
# Procedure, shortened: as §1
# [16] = molecular target: Neu5Ac(a2-3)Gal(b1-4)GlcNAc(b1-2)[Neu5Ac(a2-3)Gal(b1-4)GlcNAc(b1-4)]Man(a1-3)[GlcNAc(b1-4)][Neu5Ac(a2-3)Gal(b1-4)GlcNAc(b1-4)Man(a1-6)]Man(b1-4)GlcNAc(b1-4)GlcNAc
# Procedure, shortened: as §1
# [17] = molecular target: Neu5Ac(a2-3)Gal(b1-4)GlcNAc(b1-2)[Neu5Ac(a2-3)Gal(b1-4)GlcNAc(b1-6)]Man(a1-6)[Neu5Ac(a2-3)Gal(b1-4)GlcNAc(b1-2)Man(a1-3)]Man(b1-4)GlcNAc(b1-4)GlcNAc
# Procedure, shortened: as §1
# [18] = molecular target: Neu5Ac(a2-3)Gal(b1-4)GlcNAc(b1-2)[Neu5Ac(a2-3)Gal(b1-4)GlcNAc(b1-6)]Man(a1-6)[Neu5Ac(a2-3)Gal(b1-4)GlcNAc(b1-2)Man(a1-3)][GlcNAc(b1-4)]Man(b1-4)GlcNAc(b1-4)GlcNAc
# Procedure, shortened: as §1
# [19] = molecular target: Neu5Ac(a2-3)Gal(b1-4)GlcNAc(b1-3)Gal
# Procedure, shortened: as §1
# [20] = molecular target: Neu5Ac(a2-3)Gal(b1-4)GlcNAc(b1-3)Gal(b1-3)GlcNAc
# Procedure, shortened: as §1
# [21] = molecular target: Neu5Ac(a2-3)Gal(b1-4)GlcNAc(b1-3)Gal(b1-4)GlcNAc
# Procedure, shortened: as §1
# [22] = molecular target: Neu5Ac(a2-3)Gal(b1-4)GlcNAc(b1-3)Gal(b1-4)GlcNAc(b1-2)Man(a1-3)[Neu5Ac(a2-3)Gal(b1-4)GlcNAc(b1-3)Gal(b1-4)GlcNAc(b1-2)Man(a1-6)]Man(b1-4)GlcNAc(b1-4)GlcNAc
# Procedure, shortened: as §1
# [23] = molecular target: Neu5Ac(a2-3)Gal(b1-4)GlcNAc(b1-3)Gal(b1-4)GlcNAc(b1-3)Gal(b1-4)GlcNAc
# Procedure, shortened: as §1
# [24] = molecular target: Neu5Ac(a2-3)Gal(b1-4)GlcNAc(b1-3)Gal(b1-4)GlcNAc(b1-3)Gal(b1-4)GlcNAc(b1-2)Man(a1-3)[Neu5Ac(a2-3)Gal(b1-4)GlcNAc(b1-3)Gal(b1-4)GlcNAc(b1-3)Gal(b1-4)GlcNAc(b1-2)Man(a1-6)]GalNAc
# Procedure, shortened: as §1
# [25] = molecular target: Neu5Ac(a2-3)Gal(b1-4)GlcNAc(b1-3)Gal(b1-4)GlcNAc(b1-3)GalNAc
# Procedure, shortened: as §1
# [26] = molecular target: Neu5Ac(a2-3)Gal(b1-4)GlcNAc(b1-3)Gal(b1-4)GlcNAc(b1-3)[Neu5Ac(a2-3)Gal(b1-4)GlcNAc(b1-3)Gal(b1-4)GlcNAc(b1-6)]GalNAc
# Procedure, shortened: as §1
# [27] = molecular target: Neu5Ac(a2-3)Gal(b1-4)GlcNAc(b1-3)Gal(b1-4)GlcNAc(b1-6)[Gal(b1-3)]GalNAc
# Procedure, shortened: as §1
# [28] = molecular target: Neu5Ac(a2-3)Gal(b1-4)GlcNAc(b1-3)Gal(b1-4)[Fuc(a1-3)]GlcNAc
# Procedure, shortened: as §1
# [29] = molecular target: Neu5Ac(a2-3)Gal(b1-4)GlcNAc(b1-3)GalNAc
# Procedure, shortened: as §1
# [30] = molecular target: Neu5Ac(a2-3)Gal(b1-4)GlcNAc(b1-3)[Neu5Ac(a2-3)Gal(b1-4)GlcNAc(b1-6)]GalNAc
# Procedure, shortened: as §1
binder,measurement,setting,value
"ECL (Erythrina cristagalli), Q6YD91 (protein) VETISFSFSEFEPGNNDLTLQGAAIITQSGVLQLTKINQNGMPAWDSTGRTLYTKPVHIWDMTTGTVASFETRFSFSIEQPYTRPLPADGLVFFMGPTKSKPAQGYGYLGVFNNSKQDNSYQTLAVEFDTFSNPWDPPQVPHIGIDVNSIRSIKTQPFQLDNGQVANVVIKYDASSKILLAVLVYPSSGAIYTIAEIVDVKQVLPEWVDVGLSGATGAQRDAAETHDVYSWSFHASLPETND",glycan array binding signal (z-score),[1],-0.32
same,glycan array binding signal (z-score),[2],-0.169
same,glycan array binding signal (z-score),[3],-0.351
same,glycan array binding signal (z-score),[4],-0.364
same,glycan array binding signal (z-score),[5],-0.296
same,glycan array binding signal (z-score),[6],-0.358
same,glycan array binding signal (z-score),[7],-0.187
same,glycan array binding signal (z-score),[8],-0.112
same,glycan array binding signal (z-score),[9],-0.358
same,glycan array binding signal (z-score),[10],-0.193
same,glycan array binding signal (z-score),[11],-0.563
same,glycan array binding signal (z-score),[12],-0.216
same,glycan array binding signal (z-score),[13],-0.393
same,glycan array binding signal (z-score),[14],-0.381
same,glycan array binding signal (z-score),[15],-0.429
same,glycan array binding signal (z-score),[16],-0.481
same,glycan array binding signal (z-score),[17],-0.437
same,glycan array binding signal (z-score),[18],-0.422
same,glycan array binding signal (z-score),[19],-0.385
same,glycan array binding signal (z-score),[20],-0.392
same,glycan array binding signal (z-score),[21],-0.192
same,glycan array binding signal (z-score),[22],1.81
same,glycan array binding signal (z-score),[23],-0.299
same,glycan array binding signal (z-score),[24],0.889
same,glycan array binding signal (z-score),[25],-0.291
same,glycan array binding signal (z-score),[26],-0.038
same,glycan array binding signal (z-score),[27],0.043
same,glycan array binding signal (z-score),[28],-0.328
same,glycan array binding signal (z-score),[29],-0.419
same,glycan array binding signal (z-score),[30],-0.262
